# Results as given in the supplement of paper PMC8728848.
# This is one part of the list.
# B1: BDCA-2 (Homo sapiens), Q8WTT0 (protein)
# chain: MVPEEEPQDREKGLWWFQLKVWSMAVVSILLLSVCFTVSSVVPHNFMYSKTVKRLSKLREYQQYHPSLTCVMEGKDIEDWSCCPTPWTSFQSSCYFISTGMQSWTKSQKNCSVMGADLVVINTREEQDFIIQNLKRNSSYFLGLSDPGGRRHWQWVDQTPYNENVTFWHSGEPNNLDERCAIINFRSSEEWGWNDIHCHVPQKSICKMKKIYI
# What was measured:
# Test in all cases: glycan array binding signal (z-score within array); higher = stronger binding
# Conditions in all cases: glycan notation: IUPAC condensed, linker removed
# [1] = target: Fuc(a1-2)[Gal(a1-3)]Gal(b1-4)GlcNAc(b1-2)Man
# Summary of the method: (§1)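 Arrays were curated from the Consortium for Functional Glycomics database, 3228 in total, and kept only where the protein sequence was available. Binding is expressed as a within-array Z-score. This score was averaged across arrays of the same protein sequence at different concentrations or buffers and across linkers, and negative values can be read as non-binding.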
# [2] = target: Fuc(a1-2)[Gal(a1-3)]Gal(b1-4)GlcNAc(b1-2)Man(a1-3)[Fuc(a1-2)[Gal(a1-3)]Gal(b1-4)GlcNAc(b1-2)Man(a1-6)]Man(b1-4)GlcNAc(b1-4)GlcNAc
# Summary of the method: as §1
# [3] = target: Fuc(a1-2)[Gal(a1-3)]Gal(b1-4)GlcNAc(b1-2)Man(a1-3)[Fuc(a1-2)[Gal(a1-3)]Gal(b1-4)GlcNAc(b1-2)Man(a1-6)]Man(b1-4)GlcNAc(b1-4)[Fuc(a1-6)]GlcNAc
# Summary of the method: as §1
# [4] = target: Fuc(a1-2)[Gal(a1-3)]Gal(b1-4)GlcNAc(b1-3)GalNAc
# Summary of the method: as §1
# [5] = target: Fuc(a1-2)[Gal(a1-3)]Gal(b1-4)GlcNAc(b1-3)[Fuc(a1-2)[Gal(a1-3)]Gal(b1-4)GlcNAc(b1-6)]GalNAc
# Summary of the method: as §1
# [6] = target: Fuc(a1-2)[Gal(a1-3)]Gal(b1-4)GlcNAc(b1-6)GalNAc
# Summary of the method: as §1
# [7] = target: Fuc(a1-2)[Gal(a1-3)]Gal(b1-4)[Fuc(a1-3)]Glc
# Summary of the method: as §1
# [8] = target: Fuc(a1-2)[Gal(a1-3)]Gal(b1-4)[Fuc(a1-3)]GlcNAc
# Summary of the method: as §1
# [9] = target: Fuc(a1-2)[Gal(a1-3)]Gal(b1-4)[Fuc(a1-3)]GlcNAc(b1-3)GalNAc
# Summary of the method: as §1
# [10] = target: Fuc(a1-2)[Gal(a1-4)]Gal(b1-4)GlcNAc
# Summary of the method: as §1
# [11] = target: Fuc(a1-2)[GalNAc(a1-3)]Gal
# Summary of the method: as §1
# [12] = target: Fuc(a1-2)[GalNAc(a1-3)]Gal(b1-3)GalNAc(a1-3)[Fuc(a1-2)]Gal(b1-4)GlcNAc
# Summary of the method: as §1
# [13] = target: Fuc(a1-2)[GalNAc(a1-3)]Gal(b1-3)GalNAc(b1-3)Gal(a1-4)Gal(b1-4)Glc
# Summary of the method: as §1
# [14] = target: Fuc(a1-2)[GalNAc(a1-3)]Gal(b1-3)GlcNAc
# Summary of the method: as §1
# [15] = target: Fuc(a1-2)[GalNAc(a1-3)]Gal(b1-3)GlcNAc(b1-2)Man(a1-3)[Fuc(a1-2)[GalNAc(a1-3)]Gal(b1-3)GlcNAc(b1-2)Man(a1-6)]Man(b1-4)GlcNAc(b1-4)GlcNAc
# Summary of the method: as §1
# [16] = target: Fuc(a1-2)[GalNAc(a1-3)]Gal(b1-3)GlcNAc(b1-2)Man(a1-3)[Fuc(a1-2)[GalNAc(a1-3)]Gal(b1-3)GlcNAc(b1-2)Man(a1-6)]Man(b1-4)GlcNAc(b1-4)[Fuc(a1-6)]GlcNAc
# Summary of the method: as §1
# [17] = target: Fuc(a1-2)[GalNAc(a1-3)]Gal(b1-3)GlcNAc(b1-3)GalNAc
# Summary of the method: as §1
# [18] = target: Fuc(a1-2)[GalNAc(a1-3)]Gal(b1-3)GlcNAc(b1-6)GalNAc
# Summary of the method: as §1
# [19] = target: Fuc(a1-2)[GalNAc(a1-3)]Gal(b1-4)Glc
# Summary of the method: as §1
# [20] = target: Fuc(a1-2)[GalNAc(a1-3)]Gal(b1-4)GlcNAc
# Summary of the method: as §1
# [21] = target: Fuc(a1-2)[GalNAc(a1-3)]Gal(b1-4)GlcNAc(b1-2)Man
# Summary of the method: as §1
# [22] = target: Fuc(a1-2)[GalNAc(a1-3)]Gal(b1-4)GlcNAc(b1-2)Man(a1-3)[Fuc(a1-2)[GalNAc(a1-3)]Gal(b1-4)GlcNAc(b1-2)Man(a1-6)]Man(b1-4)GlcNAc(b1-4)GlcNAc
# Summary of the method: as §1
# [23] = target: Fuc(a1-2)[GalNAc(a1-3)]Gal(b1-4)GlcNAc(b1-2)Man(a1-3)[Fuc(a1-2)[GalNAc(a1-3)]Gal(b1-4)GlcNAc(b1-2)Man(a1-6)]Man(b1-4)GlcNAc(b1-4)[Fuc(a1-6)]GlcNAc
# Summary of the method: as §1
# [24] = target: Fuc(a1-2)[GalNAc(a1-3)]Gal(b1-4)GlcNAc(b1-3)Gal(b1-4)GlcNAc
# Summary of the method: as §1
# [25] = target: Fuc(a1-2)[GalNAc(a1-3)]Gal(b1-4)GlcNAc(b1-3)Gal(b1-4)GlcNAc(b1-3)Gal(b1-4)GlcNAc
# Summary of the method: as §1
# [26] = target: Fuc(a1-2)[GalNAc(a1-3)]Gal(b1-4)GlcNAc(b1-3)GalNAc
# Summary of the method: as §1
# [27] = target: Fuc(a1-2)[GalNAc(a1-3)]Gal(b1-4)GlcNAc(b1-3)[Fuc(a1-2)[GalNAc(a1-3)]Gal(b1-4)GlcNAc(b1-6)]GalNAc
# Summary of the method: as §1
# [28] = target: Fuc(a1-2)[GalNAc(a1-3)]Gal(b1-4)GlcNAc(b1-6)GalNAc
# Summary of the method: as §1
# [29] = target: Fuc(a1-2)[GalNAc(a1-3)]Gal(b1-4)[Fuc(a1-3)]GlcNAc
# Summary of the method: as §1
# [30] = target: Fuc(a1-2)[GalNAc(a1-3)]Gal(b1-4)[Fuc(a1-3)]GlcNAc(b1-3)GalNAc
# Summary of the method: as §1
# [31] = target: Fuc(a1-2)[GalNAc(a1-4)]Gal(b1-4)GlcNAc
# Summary of the method: as §1
# [32] = target: Fuc(a1-2)[GalNAc(b1-3)]Gal
# Summary of the method: as §1
# Fuc(a1-3)GlcNAc = target: Fuc(a1-3)GlcNAc
# Summary of the method: as §1
# [33] = target: Fuc(a1-3)[Gal(b1-4)]Glc6S
# Summary of the method: as §1
# [34] = target: Fuc(a1-3)[Gal(b1-4)]GlcNAc
# Summary of the method: as §1
# [35] = target: Fuc(a1-3)[Gal(b1-4)]GlcNAc(b1-2)Man
# Summary of the method: as §1
# [36] = target: Fuc(a1-3)[Gal(b1-4)]GlcNAc(b1-2)Man(a1-3)[Fuc(a1-3)[Gal(b1-4)]GlcNAc(b1-2)Man(a1-6)]Man(b1-4)GlcNAc(b1-4)GlcNAc
# Summary of the method: as §1
# [37] = target: Fuc(a1-3)[Gal(b1-4)]GlcNAc(b1-2)Man(a1-3)[Fuc(a1-3)[Gal(b1-4)]GlcNAc(b1-2)Man(a1-6)]Man(b1-4)GlcNAc(b1-4)[Fuc(a1-6)]GlcNAc
# Summary of the method: as §1
# [38] = target: Fuc(a1-3)[Gal(b1-4)]GlcNAc(b1-3)Gal(b1-3)[Fuc(a1-4)]GlcNAc
# Summary of the method: as §1
# [39] = target: Fuc(a1-3)[Gal(b1-4)]GlcNAc(b1-3)Gal(b1-4)[Fuc(a1-3)]GlcNAc
# Summary of the method: as §1
# [40] = target: Fuc(a1-3)[Gal(b1-4)]GlcNAc(b1-3)Gal(b1-4)[Fuc(a1-3)]GlcNAc(b1-3)Gal(b1-4)[Fuc(a1-3)]GlcNAc
# Summary of the method: as §1
# [41] = target: Fuc(a1-3)[Gal(b1-4)]GlcNAc(b1-3)GalNAc
# Summary of the method: as §1
# [42] = target: Fuc(a1-3)[Gal(b1-4)]GlcNAc(b1-4)Gal(b1-4)[Fuc(a1-3)]GlcNAc
# Summary of the method: as §1
# [43] = target: Fuc(a1-3)[Gal(b1-4)]GlcNAc(b1-4)Gal(b1-4)[Fuc(a1-3)]GlcNAc(b1-4)Gal(b1-4)[Fuc(a1-3)]GlcNAc
# Summary of the method: as §1
# [44] = target: Fuc(a1-3)[Gal(b1-4)]GlcNAc(b1-6)GalNAc
# Summary of the method: as §1
binder,measurement,setting,value
B1,glycan array binding signal (z-score),[1],-0.092
same,glycan array binding signal (z-score),[2],-0.115
same,glycan array binding signal (z-score),[3],-0.081
same,glycan array binding signal (z-score),[4],-0.098
same,glycan array binding signal (z-score),[5],-0.099
same,glycan array binding signal (z-score),[6],-0.159
same,glycan array binding signal (z-score),[7],-0.18
same,glycan array binding signal (z-score),[8],-0.077
same,glycan array binding signal (z-score),[9],-0.149
same,glycan array binding signal (z-score),[10],-0.24
same,glycan array binding signal (z-score),[11],-0.181
same,glycan array binding signal (z-score),[12],-0.188
same,glycan array binding signal (z-score),[13],-0.167
same,glycan array binding signal (z-score),[14],-0.204
same,glycan array binding signal (z-score),[15],-0.171
same,glycan array binding signal (z-score),[16],-0.143
same,glycan array binding signal (z-score),[17],-0.161
same,glycan array binding signal (z-score),[18],-0.188
same,glycan array binding signal (z-score),[19],-0.2
same,glycan array binding signal (z-score),[20],0.036
same,glycan array binding signal (z-score),[21],-0.188
same,glycan array binding signal (z-score),[22],-0.126
same,glycan array binding signal (z-score),[23],-0.133
same,glycan array binding signal (z-score),[24],-0.194
same,glycan array binding signal (z-score),[25],-0.152
same,glycan array binding signal (z-score),[26],-0.14
same,glycan array binding signal (z-score),[27],-0.119
same,glycan array binding signal (z-score),[28],-0.178
same,glycan array binding signal (z-score),[29],-0.026
same,glycan array binding signal (z-score),[30],-0.03
same,glycan array binding signal (z-score),[31],-0.264
same,glycan array binding signal (z-score),[32],0.244
same,glycan array binding signal (z-score),Fuc(a1-3)GlcNAc,-0.147
same,glycan array binding signal (z-score),[33],-0.135
same,glycan array binding signal (z-score),[34],-0.224
same,glycan array binding signal (z-score),[35],-0.166
same,glycan array binding signal (z-score),[36],-0.166
same,glycan array binding signal (z-score),[37],-0.15
same,glycan array binding signal (z-score),[38],-0.175
same,glycan array binding signal (z-score),[39],-0.154
same,glycan array binding signal (z-score),[40],-0.18
same,glycan array binding signal (z-score),[41],-0.12
same,glycan array binding signal (z-score),[42],-0.171
same,glycan array binding signal (z-score),[43],-0.021
same,glycan array binding signal (z-score),[44],-0.148
